Results: the supplement of paper PMC4967469
IC50 is the fitted dose that halves viability relative to control wells, and lower means more sensitive; where the fit passes the top or lowest dose, that dose stands as a limit. AUC, from the same fit, is the share of area under the viability curve across the 256-fold dose range: 1 means no effect, lower means more sensitive.

Compound: NC1(c2ccc(-c3nc4ccn5c(=O)[nH]nc5c4cc3-c3ccccc3)cc2)CCC1 [MK-2206]
Assay: Viability of human cancer cell lines after 72 h of drug (GDSC screen)
Description: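 Human cancer cell lines in 384-well plates, medium with 10% serum, drug for 72 h over a 256-fold dose range (nine 2-fold or five 4-fold steps up to the top dose). Adherent lines were fixed and stained with the nucleic acid dye Syto60, suspension lines read with resazurin; signal relative to control wells, capped at 0 and 100%. One two-parameter sigmoid per drug and line, fitted in a mixed model over all curves with the slope shared within a line.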

Cell Line	AUC	IC50
KMRC-1 (kidney, adherent, top dose 4 µM)	0.931	> 4 µM
KMRC-20 (kidney, adherent, top dose 4 µM)	0.927	> 4 µM
KMS-11 (myeloma, suspension, top dose 4 µM)	0.988	> 4 µM
KNS-42 (glioma, adherent, top dose 4 µM)	0.983	> 4 µM
KNS-62 (lung squamous cell carcinoma, adherent, top dose 4 µM)	0.807	3.29 µM
KNS-81-FD (glioma, adherent, top dose 4 µM)	0.926	> 4 µM
KON (head and neck, adherent, top dose 4 µM)	0.7	0.899 µM
KOPN-8 (B-cell leukaemia, suspension, top dose 4 µM)	0.943	> 4 µM
KP-1N (pancreas, adherent, top dose 4 µM)	0.955	> 4 µM
KP-2 (pancreas, adherent, top dose 4 µM)	0.894	> 4 µM
KP-3 (pancreas, adherent, top dose 4 µM)	0.896	> 4 µM
KP-N-YN (neuroblastoma, adherent, top dose 4 µM)	0.985	> 4 µM
KS-1 (glioma, adherent, top dose 4 µM)	0.772	1.93 µM
KU812 (chronic myeloid leukaemia, suspension, top dose 4 µM)	0.879	3.47 µM
KU-19-19 (bladder, adherent, top dose 4 µM)	0.908	> 4 µM
KURAMOCHI (ovary, adherent, top dose 4 µM)	0.714	1.12 µM
KY821 (leukaemia, suspension, top dose 4 µM)	0.963	> 4 µM
KYAE-1 (oesophagus, suspension, top dose 4 µM)	0.593	0.464 µM
KYSE-50 (oesophagus, adherent, top dose 4 µM)	0.986	> 4 µM
KYSE-140 (oesophagus, adherent, top dose 4 µM)	0.908	> 4 µM

Cell Line	AUC	IC50
KYSE-150 (oesophagus, adherent, top dose 4 µM)	0.986	> 4 µM
KYSE-220 (oesophagus, adherent, top dose 4 µM)	0.963	> 4 µM
KYSE-410 (oesophagus, adherent, top dose 4 µM)	0.91	> 4 µM
KYSE-450 (oesophagus, adherent, top dose 4 µM)	0.959	> 4 µM
KYSE-510 (oesophagus, adherent, top dose 4 µM)	0.912	> 4 µM
KYSE-520 (oesophagus, adherent, top dose 4 µM)	0.933	> 4 µM
L-363 (myeloma, suspension, top dose 4 µM)	0.573	0.385 µM
L-428 (Hodgkin lymphoma, suspension, top dose 4 µM)	0.993	> 4 µM
L-540 (Hodgkin lymphoma, suspension, top dose 4 µM)	0.933	> 4 µM
L-1236 (Hodgkin lymphoma, suspension, top dose 4 µM)	0.844	2.23 µM
LAMA-84 (chronic myeloid leukaemia, suspension, top dose 4 µM)	0.83	2.55 µM
LAN-6 (neuroblastoma, adherent, top dose 4 µM)	0.898	> 4 µM
LB373-MEL-D (melanoma, adherent, top dose 4 µM)	0.925	> 4 µM
LB647-SCLC (small cell lung carcinoma, semi-adherent, top dose 4 µM)	0.843	3.34 µM
LB771-HNC (head and neck, adherent, top dose 4 µM)	0.899	> 4 µM
LB831-BLC (bladder, adherent, top dose 4 µM)	0.958	> 4 µM
LB996-RCC (kidney, adherent, top dose 2 µM)	0.928	> 2 µM
LB1047-RCC (kidney, adherent, top dose 4 µM)	0.774	1.77 µM
LB2518-MEL (melanoma, adherent, top dose 4 µM)	0.98	> 4 µM
LC4-1 (lymphoblastic leukaemia, suspension, top dose 4 µM)	0.966	> 4 µM

Cell Line	AUC	IC50
LC-1-sq (lung squamous cell carcinoma, adherent, top dose 4 µM)	0.919	> 4 µM
LC-2-ad (lung adenocarcinoma, adherent, top dose 2 µM)	0.952	> 2 µM
LCLC-97TM1 (large cell lung carcinoma, adherent, top dose 4 µM)	0.912	> 4 µM
LK-2 (lung squamous cell carcinoma, adherent, top dose 4 µM)	0.942	> 4 µM
LN-18 (glioma, adherent, top dose 4 µM)	0.907	3.64 µM
LN-229 (glioma, adherent, top dose 4 µM)	0.985	> 4 µM
LN-405 (glioma, adherent, top dose 4 µM)	0.855	> 4 µM
LNCaP-Clone-FGC (prostate, adherent, top dose 4 µM)	0.643	0.661 µM
LNZTA3WT4 (glioma, adherent, top dose 4 µM)	0.919	> 4 µM
LOU-NH91 (lung squamous cell carcinoma, adherent, top dose 4 µM)	0.751	1.42 µM
LOUCY (T-cell lymphoblastic leukaemia, suspension, top dose 4 µM)	0.649	0.592 µM
LOXIMVI (melanoma, semi-adherent, top dose 4 µM)	0.93	> 4 µM
LP-1 (myeloma, suspension, top dose 4 µM)	0.974	> 4 µM
LS-180 (large intestine, adherent, top dose 4 µM)	0.903	> 4 µM
LS-411N (large intestine, adherent, top dose 4 µM)	0.943	> 4 µM
LS-513 (large intestine, adherent, top dose 4 µM)	0.702	0.949 µM
LS-1034 (large intestine, adherent, top dose 4 µM)	0.978	> 4 µM
LU-65 (large cell lung carcinoma, suspension, top dose 4 µM)	0.987	> 4 µM
LU-134-A (small cell lung carcinoma, suspension, top dose 4 µM)	0.781	1.77 µM
LU-135 (small cell lung carcinoma, suspension, top dose 4 µM)	0.937	> 4 µM
